# Test results published in the supplement of paper PMC7826260.
# Some of the results follow. Viral Rep nickase domains cut single-stranded DNA in vitro (1 h at 37 °C, 3 µM enzyme); the outer parts of the 90-letter strands are left off. A value is the log2 ratio of uncut reads to the pool without enzyme; strong cutting gives strongly negative numbers. There is no active / inactive call. Shares of all reads are compared; where an enzyme cuts many sequences, the uncut ones exceed 0.
# How the values were obtained:
# Experiment in all cases: uncleaved DNA left, log2 of reads against the no-enzyme library (log2 ratio); higher = less cleavage (more negative = more Rep cleavage of the k-mer); sequences stand for … in CTCGTCCG…ACCGGAGA
# [1] = tested on: T1, Rep nickase domain of Muscovy duck circovirus
# T1 sequence (Rep 1-111, printed without the tag): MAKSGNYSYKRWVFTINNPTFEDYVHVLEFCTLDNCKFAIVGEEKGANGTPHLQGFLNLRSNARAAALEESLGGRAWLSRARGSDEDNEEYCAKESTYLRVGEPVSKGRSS
# Experimental: (§1)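 A pool of 90-nt single-stranded DNAs with seven random bases just before the constant AC of the nick site (name = the seven bases) was cut by 3 µM recombinant His6-SUMO-tagged Rep nickase domain (300 nM DNA, 50 mM HEPES pH 8.0, 50 mM NaCl, 1 mM MnCl2, 1 h, 37 °C, three replicates). Uncut DNA was amplified and sequenced.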
# [2] = tested on: T2, Rep nickase domain of banana bunchy top virus
# T2 sequence (Rep 1-94, printed without the tag): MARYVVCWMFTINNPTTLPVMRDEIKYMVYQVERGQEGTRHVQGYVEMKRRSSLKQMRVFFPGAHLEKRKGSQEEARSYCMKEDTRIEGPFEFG
# Experimental: as §1
# [3] = tested on: T3, Rep nickase domain of cabbage leaf curl virus
# T3 sequence (Rep 1-116, printed without the tag): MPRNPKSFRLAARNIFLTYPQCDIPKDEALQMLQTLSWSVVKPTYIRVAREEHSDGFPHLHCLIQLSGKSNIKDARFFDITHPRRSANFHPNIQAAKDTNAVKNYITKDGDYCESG
# Experimental: as §1
# [4] = tested on: T4, Rep nickase domain of chickpea chlorotic dwarf virus
# T4 sequence (Rep 1-124, printed without the tag): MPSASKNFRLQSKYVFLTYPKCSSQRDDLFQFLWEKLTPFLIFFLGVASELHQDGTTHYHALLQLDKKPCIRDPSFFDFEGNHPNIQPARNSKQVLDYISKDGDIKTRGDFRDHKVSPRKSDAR
# Experimental: as §1
# [5] = tested on: T5, Rep nickase domain of faba bean necrotic yellows virus
# T5 sequence (Rep 1-98, printed without the tag): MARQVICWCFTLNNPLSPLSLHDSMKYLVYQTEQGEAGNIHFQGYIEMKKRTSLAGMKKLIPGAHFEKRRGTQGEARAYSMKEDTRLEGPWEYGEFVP
# Experimental: as §1
# [6] = tested on: T6, Rep nickase domain of maize striate mosaic virus
# T6 sequence (Rep 1-117, printed without the tag): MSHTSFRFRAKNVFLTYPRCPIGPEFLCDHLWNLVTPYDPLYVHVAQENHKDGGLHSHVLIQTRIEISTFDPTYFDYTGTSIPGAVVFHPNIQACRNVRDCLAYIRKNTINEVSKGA
# Experimental: as §1
# [7] = tested on: T7, Rep nickase domain of porcine circovirus 2
# T7 sequence (Rep 2-116, printed without the tag): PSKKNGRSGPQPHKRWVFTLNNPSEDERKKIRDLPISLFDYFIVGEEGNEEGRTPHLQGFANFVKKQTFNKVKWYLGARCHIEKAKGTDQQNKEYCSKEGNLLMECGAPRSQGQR
# Experimental: as §1
# [8] = tested on: T8, Rep nickase domain of tomato golden mosaic virus
# T8 sequence (Rep 1-124, printed without the tag): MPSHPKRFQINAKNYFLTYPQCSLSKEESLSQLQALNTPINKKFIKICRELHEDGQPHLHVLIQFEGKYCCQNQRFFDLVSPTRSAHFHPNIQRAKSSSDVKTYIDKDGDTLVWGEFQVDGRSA
# Experimental: as §1
# [9] = tested on: T9, Rep nickase domain of tomato yellow leaf curl virus
# T9 sequence (Rep 1-136, printed without the tag): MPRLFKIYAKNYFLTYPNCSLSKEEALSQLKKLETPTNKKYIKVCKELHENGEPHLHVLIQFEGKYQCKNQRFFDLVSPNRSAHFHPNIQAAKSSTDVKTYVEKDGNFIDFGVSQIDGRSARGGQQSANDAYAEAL
# Experimental: as §1
# [10] = tested on: T10, Rep nickase domain of wheat dwarf virus
# T10 sequence (Rep 1-137, printed without the tag): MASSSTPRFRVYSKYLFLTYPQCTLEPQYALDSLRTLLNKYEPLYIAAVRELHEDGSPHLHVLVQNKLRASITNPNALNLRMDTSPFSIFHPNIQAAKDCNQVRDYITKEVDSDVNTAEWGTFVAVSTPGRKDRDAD
# Experimental: as §1
Sequence,uncleaved DNA left (log2) [1],uncleaved DNA left (log2) [2],uncleaved DNA left (log2) [3],uncleaved DNA left (log2) [4],uncleaved DNA left (log2) [5],uncleaved DNA left (log2) [6],uncleaved DNA left (log2) [7],uncleaved DNA left (log2) [8],uncleaved DNA left (log2) [9],uncleaved DNA left (log2) [10]
GCGACGT,0.0149,0.0416,0.174,0.887,-0.054,1.69,0.0646,0.136,-0.0365,0.0657
GATTTAC,-0.00999,-0.0778,0.0573,-0.0641,-0.0609,0.975,-0.124,-0.11,0.0486,-0.0457
AGACATT,0.101,0.145,0.927,1.83,0.126,2.24,0.229,-0.0731,0.181,0.257
ATGGTAA,0.0312,-0.149,0.158,0.398,-0.0116,0.696,0.0721,0.0206,-0.042,0.0305
CGGGGCA,0.191,0.155,0.951,1.86,-0.0224,2.22,0.256,0.1,0.109,0.19
GGCTTAC,0.0573,0.0554,0.415,0.548,-0.0816,1.66,0.0419,-0.0708,-0.0697,0.133
TTTCTAA,0.0411,0.119,0.265,0.225,0.0106,0.431,0.0356,0.0287,0.124,0.147
TCCGTCT,0.103,-0.0618,0.149,-0.94,0.0414,-0.156,-0.0544,-0.0767,-0.0194,-0.0768
TAGATAT,0.0613,-0.477,-0.608,-1.49,-0.137,0.635,-3.43,-0.0569,0.0683,-0.098
AATCGAG,-0.0867,0.0426,-0.182,-0.114,-0.0492,-0.925,-0.0288,-0.00198,-0.0675,-0.0695
CATGCTA,0.04,-0.0343,-0.322,-1.26,0.12,-1.01,0.0819,0.0682,0.108,0.104
TTAGGCC,0.121,0.0283,0.238,0.565,-0.167,0.499,-0.156,-0.0545,-0.0786,0.0106
CTGCGGC,-0.199,-0.166,-0.532,-0.686,-0.00458,-0.975,0.0352,-0.257,-0.162,-0.244
CATTCCG,0.000447,-0.0104,-0.532,0.818,0.0877,-0.253,0.209,-0.131,0.108,-0.0126
ATCGGCT,0.0801,0.0656,-0.105,-0.181,0.0511,-0.197,0.0719,0.0427,0.0841,0.0635
GGCGGAT,0.044,0.0638,0.48,1.43,0.0209,1.94,0.17,0.17,-0.0654,0.0371

Sequence,uncleaved DNA left (log2) [1],uncleaved DNA left (log2) [2],uncleaved DNA left (log2) [3],uncleaved DNA left (log2) [4],uncleaved DNA left (log2) [5],uncleaved DNA left (log2) [6],uncleaved DNA left (log2) [7],uncleaved DNA left (log2) [8],uncleaved DNA left (log2) [9],uncleaved DNA left (log2) [10]
GCAAGAG,-0.0695,-0.121,-0.513,-0.232,-0.0176,-0.872,0.152,-0.0292,-0.0107,-0.0962
TACGTCT,0.037,0.0213,-1.82,-3.09,0.0866,-0.787,-0.663,-0.106,0.0601,-0.27
CAACTTT,-0.228,-0.19,-2.64,-3.1,-0.188,-1.41,-1.23,-0.503,-0.0454,-0.985
AGACAGC,-0.117,-0.0362,0.448,1.27,0.0104,1.07,0.191,-0.00528,0.00243,0.0251
TTGCCCA,-0.593,-0.348,-0.319,-0.832,-0.0942,-0.834,-2.05,-0.0386,0.0641,-0.0251
AAGCCGC,0.0361,-0.185,-0.559,-0.71,-0.0279,-0.941,-0.00484,-0.0783,-0.15,-0.306
ATCCCCG,0.0125,-0.0555,-0.788,-0.00896,0.0112,-1.07,0.0349,-0.0247,-0.0146,-0.0928
TGGGGTC,0.185,0.0968,0.771,1.5,0.0582,2.03,0.293,0.00455,0.0637,0.153
TTGCGCC,-0.00908,-0.184,-0.695,0.156,0.0744,-0.801,0.0267,-0.237,-0.103,-0.269
CGGTGCC,-0.0264,0.0858,-0.119,0.0826,-0.0836,-0.251,0.0237,-0.0291,0.0688,-0.0469
CCGTATG,0.213,0.17,-0.135,-0.195,0.174,-0.49,0.283,0.104,0.134,0.0082
ATGGGTC,-0.0431,-0.0964,0.232,0.607,-0.0986,0.731,0.101,-0.0982,-0.121,-0.135
AAACGAT,-0.0193,-0.114,0.0838,0.64,-0.177,1.39,0.0533,0.0619,-0.305,-0.0459
CGTCAAG,0.00434,-0.00214,-0.602,-0.412,0.0493,-0.939,0.167,-0.0185,-0.177,-0.126
CATTCGT,-0.246,-0.634,-1.01,-0.765,-0.0367,-1.18,-1.11,-0.258,-0.119,-0.242
